# Measurements: PubChem BioAssay (Tox21)
# This list was built around the results that the source calls inconclusive (neither active nor inactive); the mix of calls is not that of the screen. For some of these results: Where the call is inconclusive, the potency comes from a doubtful curve fit. The source made the active and inactive calls. Unless noted, calls follow the shape of the dose curve; as a rule, active = well fitted curve in the direction sought with a large enough effect in the repeat runs; inconclusive = weak or mixed curves; inactive = no such curve, though single readings can be large; an effect the other way counts as inactive or inconclusive.
# Tests used:
# [1] = qHTS assay for small molecule agonists of the p53 signaling pathway (AID 651631; calls by dose curve; also: nearly all actives have a fitted effect of over 15% in size; also: potency is read from the fitted curve at half-maximal effect; as to activation: % is scaled to controls: 0 for no effect and ±100 for the full control effect); settings: HCT-116 p53RE-bla reporter, beta-lactamase FRET ratio, 16 h; activation: at 73.3 µM (top of the series) unless noted
# Summary of the method: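 Beta-lactamase reporter activity under p53 response elements was quantified in HCT-116 cells by FRET fluorescence, following 16 h incubation with test compounds at 37 °C and 2 h substrate development at room temperature.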
# [2] = qHTS assay for identifying genotoxic compounds that show differential cytotoxicity against isogenic chicken DT40 cell lines with known DNA damage response pathways - Rev3 mutant cell line (AID 743014); settings: chicken DT40 Rev3-/- viability, CellTiter-Glo, 40 h; activity, negative = cytotoxicity: at 68.4 µM (top of the series) unless noted; also: potency is read from the fitted curve at half-maximal effect; nearly all actives have a fitted effect of over 55% in size
# [3] = qHTS assay to identify small molecule antagonists of the androgen receptor (AR) signaling pathway using the MDA cell line - cell viability counter screen (AID 743041; also: potency is read from the fitted curve at half-maximal effect; nearly all actives have a fitted effect of over 45% in size); settings: MDA-kb2 viability, CellTiter-Fluor, 16 h, cells co-treated with R1881 androgen agonist; viability change, negative = cytotoxic: at 70.3 µM (top of the series)
# Summary of the method: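 qHTS viability read-out; MDA-kb2 AR-luc; R1881-stimulated; 16 h exposure at 37C, 0% CO2; CellTiter-Fluor, 30 min; fluorescence intensity.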
# [4] = qHTS assay to identify small molecule antagonists of the thyroid receptor (TR) signaling pathway - cell viability counter screen (AID 743064); settings: GH3.TRE-Luc viability, CellTiter-Fluor, 24 h; activity change, negative = cytotoxic: at 70.3 µM (top of the series) unless noted; also: potency is read from the fitted curve at half-maximal effect; nearly all actives have a fitted effect of over 50% in size
# Summary of the method: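 CellTiter-Fluor readout, 30 min at 37 °C/5% CO2, following 23.5 h incubation of GH3.TRE-Luc cells with test compound and 1 nM T3 (final).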
# [5] = qHTS assay to identify small molecule antagonists of the estrogen receptor alpha (ER-alpha) signaling pathway - cell viability counter screen (AID 743074; calls by dose curve;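 also: HEK293 cells carrying ER-alpha-UAS-bla reporter stimulated with 17beta-estradiol; nearly all actives have a fitted effect of over 45% in size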; also: potency is read from the fitted curve at half-maximal effect; as to activity, negative = cytotoxicity: % is scaled to controls: 0 for no effect and ±100 for the full control effect)
# [6] = target: Peroxisome proliferator-activated receptor gamma (Homo sapiens) (UniProt P37231); test: qHTS assay to identify small molecule agonists of the peroxisome proliferator-activated receptor gamma (PPARg) signaling pathway (AID 743094; active = well fitted activation curve with a large enough effect in the signal ratio in the repeat runs, not every such curve was filed as active; inconclusive = weak or mixed curves, or effect the other way; inactive = no such curve, though single readings can be large or run the other way; the % refers to the signal ratio; also: potency is read from the fitted curve at half-maximal effect; as to activation: % is scaled to controls: 0 for no effect and ±100 for the full control effect); settings: HEK293H PPARg-UAS-bla, beta-lactamase FRET ratio, 17 h; activation: at 57 µM (top of the series) unless noted
# Summary of the method: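 Agonism was assessed in a beta-lactamase reporter system, HEK293H cells with a stably integrated UAS-bla construct under PPARg control; the 17 h treatment at 37C preceded a 1 h room-temperature FRET substrate read.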
# [7] = target: Nuclear receptor subfamily 1 group I member 2 (Homo sapiens) (UniProt O75469); test: Human pregnane X receptor (PXR) activation by small molecules, qHTS assay (AID 1346985); also: potency is read from the fitted curve at half-maximal effect; nearly all actives have a fitted effect of over 40% in size
# Summary of the method: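 DPX-2 cells (HepG2 co-transfected with a PXR response element and a CYP3A4-promoter luciferase construct) were seeded at 2,000 per well, rested 5 hr at 37C, then exposed to DMSO-dissolved compounds for 24 hr. Activation was read as luciferase luminescence.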
# [8] = qHTS assay for small molecule disruptors of the mitochondrial membrane potential (AID 720635); settings: HepG2 mitochondrial membrane potential, Mito-MPS dye ratio; ratio activity, negative = MMP loss: at 83.2 µM (top of the series) unless noted; also: potency is read from the fitted curve at half-maximal effect
# Summary of the method: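 HepG2 cells (2,000/well) attached overnight at 37C, then took compound for 1 hr at 37C, 5% CO2. Mito-MPS dye was added for 30 min; fluorescence was read at 490/535 nm (monomers) and 540/590 nm (aggregates).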
# [9] = target: Glucocorticoid receptor (Homo sapiens) (UniProt P04150); test: qHTS assay to identify small molecule agonists of the glucocorticoid receptor (GR) signaling pathway (AID 720691; active = well fitted activation curve with a large enough effect in the signal ratio in the repeat runs, not every such curve was filed as active; inconclusive = weak or mixed curves, or effect the other way; inactive = no such curve, though single readings can be large or run the other way; the % refers to the signal ratio; also: % is scaled to controls: 0 for no effect and ±100 for the full control effect); settings: GR-bla HeLa, beta-lactamase reporter ratio, 18 h; activation: at 62.4 µM (top of the series) unless noted
# Summary of the method: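 Compounds in DMSO, alongside positive controls, were added to GR-bla HeLa reporter cells and incubated 18 h at 37 C; GRE-driven beta-lactamase was detected by fluorescence after 2 h with FRET substrate at room temperature.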
# [10] = target: Glucocorticoid receptor (Homo sapiens) (UniProt P04150); test: qHTS assay to identify small molecule antagonists of the glucocorticoid receptor (GR) signaling pathway (AID 720692; active = well fitted inhibition curve with a large enough effect in the signal ratio in the repeat runs, not every such curve was filed as active; inconclusive = weak or mixed curves, or effect the other way; inactive = no such curve, though single readings can be large or run the other way; the % refers to the signal ratio; also: potency is read from the fitted curve at half-maximal effect); settings: GR-bla HeLa, beta-lactamase FRET ratio, dexamethasone-stimulated, 18 h; activity change, negative = inhibition: at 58.5 µM (top of the series) unless noted
# Summary of the method: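 In a 1536-well cell format, compounds were added 4 h after seeding GR-bla HeLa cells, together with dexamethasone at 5 nM final; reporter activity was measured by FRET-substrate fluorescence following 18 h at 37 C.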
# [11] = qHTS assay for identifying genotoxic compounds that show differential cytotoxicity against isogenic chicken DT40 cell lines with known DNA damage response pathways - wild type cell line (AID 743012); settings: DT40 wild type chicken cells viability, CellTiter-Glo, 40 h; activity change, negative = cytotoxicity: at 68.4 µM (top of the series) unless noted; also: nearly all actives have a fitted effect of over 60% in size; also: potency is read from the fitted curve at half-maximal effect
# Summary of the method: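 Viability of DNA repair-proficient chicken DT40 cells was assessed by CellTiter-Glo luminescence following 40 h compound exposure at 37 C/5% CO2.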
# [12] = qHTS assay to identify small molecule antagonists of the estrogen receptor alpha (ER-alpha) signaling pathway using the BG1 cell line (AID 743080; calls by dose curve;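 also: BG1 cells stimulated with 17beta-estradiol alongside compound; potency is read from the fitted curve at half-maximal effect; nearly all actives have a fitted effect of over 25% in size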); settings: BG1Luc4E2 ERE-luciferase antagonist mode, luminescence; activity change, negative = inhibition: at 70.3 µM (top of the series) unless noted
# Summary of the method: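 After 5 days in phenol-red-free 10% charcoal-stripped FBS medium, BG1-Luc-4E2 cells were seeded, left 24 h at 37 C, co-treated with compounds and 17beta-estradiol for 21.5 h, then assayed for viability and luciferase.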
# [13] = target: Estrogen receptor (Homo sapiens) (UniProt P03372); test: qHTS assay to identify small molecule agonists of the estrogen receptor alpha (ER-alpha) signaling pathway using the BG1 cell line (AID 743079); settings: BG1Luc4E2 cells, ERE-luciferase agonist, 22 h; activation: at 70.3 µM (top of the series) unless noted; also: % is scaled to controls: 0 for no effect and ±100 for the full control effect; nearly all actives have a fitted effect of over 20% in size
# Tags tell the direction and shape of the fitted curve or compound fluorescence and quenching.
# Chain of UniProt P37231 (P37231 whole entry, looked up): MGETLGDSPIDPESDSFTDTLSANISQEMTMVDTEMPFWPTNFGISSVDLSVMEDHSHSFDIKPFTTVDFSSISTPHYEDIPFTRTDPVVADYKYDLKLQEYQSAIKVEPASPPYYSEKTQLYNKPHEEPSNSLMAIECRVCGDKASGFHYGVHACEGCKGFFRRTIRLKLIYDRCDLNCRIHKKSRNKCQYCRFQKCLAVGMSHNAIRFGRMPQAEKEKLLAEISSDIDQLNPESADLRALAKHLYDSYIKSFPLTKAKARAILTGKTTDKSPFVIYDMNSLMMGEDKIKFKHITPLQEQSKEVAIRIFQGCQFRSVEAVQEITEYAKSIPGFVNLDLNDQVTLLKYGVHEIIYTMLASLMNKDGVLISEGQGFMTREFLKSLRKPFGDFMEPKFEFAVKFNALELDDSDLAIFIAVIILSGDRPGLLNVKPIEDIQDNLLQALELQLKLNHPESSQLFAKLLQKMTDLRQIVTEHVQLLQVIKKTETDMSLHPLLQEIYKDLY
# Chain of UniProt P04150 (P04150 whole entry, looked up): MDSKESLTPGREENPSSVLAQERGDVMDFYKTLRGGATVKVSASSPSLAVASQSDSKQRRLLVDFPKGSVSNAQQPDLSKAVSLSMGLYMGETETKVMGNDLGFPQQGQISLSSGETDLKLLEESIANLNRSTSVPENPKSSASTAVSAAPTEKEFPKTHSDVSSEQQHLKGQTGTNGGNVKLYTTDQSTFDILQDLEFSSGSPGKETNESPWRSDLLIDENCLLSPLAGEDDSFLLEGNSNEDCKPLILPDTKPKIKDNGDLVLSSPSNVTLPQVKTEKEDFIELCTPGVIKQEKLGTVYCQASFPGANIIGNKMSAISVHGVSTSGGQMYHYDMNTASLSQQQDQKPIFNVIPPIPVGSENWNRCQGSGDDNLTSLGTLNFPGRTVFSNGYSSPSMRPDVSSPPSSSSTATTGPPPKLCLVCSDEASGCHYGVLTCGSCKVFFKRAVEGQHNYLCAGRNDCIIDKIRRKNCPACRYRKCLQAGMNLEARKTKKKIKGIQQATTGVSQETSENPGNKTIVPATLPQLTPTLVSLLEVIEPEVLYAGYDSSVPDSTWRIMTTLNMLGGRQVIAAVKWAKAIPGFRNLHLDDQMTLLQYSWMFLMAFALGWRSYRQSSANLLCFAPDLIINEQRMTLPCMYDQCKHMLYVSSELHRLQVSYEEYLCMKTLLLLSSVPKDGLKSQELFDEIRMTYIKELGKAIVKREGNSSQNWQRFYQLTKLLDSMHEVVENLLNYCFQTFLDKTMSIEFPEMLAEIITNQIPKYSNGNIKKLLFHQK
# Chain of UniProt P03372 (P03372 whole entry, looked up): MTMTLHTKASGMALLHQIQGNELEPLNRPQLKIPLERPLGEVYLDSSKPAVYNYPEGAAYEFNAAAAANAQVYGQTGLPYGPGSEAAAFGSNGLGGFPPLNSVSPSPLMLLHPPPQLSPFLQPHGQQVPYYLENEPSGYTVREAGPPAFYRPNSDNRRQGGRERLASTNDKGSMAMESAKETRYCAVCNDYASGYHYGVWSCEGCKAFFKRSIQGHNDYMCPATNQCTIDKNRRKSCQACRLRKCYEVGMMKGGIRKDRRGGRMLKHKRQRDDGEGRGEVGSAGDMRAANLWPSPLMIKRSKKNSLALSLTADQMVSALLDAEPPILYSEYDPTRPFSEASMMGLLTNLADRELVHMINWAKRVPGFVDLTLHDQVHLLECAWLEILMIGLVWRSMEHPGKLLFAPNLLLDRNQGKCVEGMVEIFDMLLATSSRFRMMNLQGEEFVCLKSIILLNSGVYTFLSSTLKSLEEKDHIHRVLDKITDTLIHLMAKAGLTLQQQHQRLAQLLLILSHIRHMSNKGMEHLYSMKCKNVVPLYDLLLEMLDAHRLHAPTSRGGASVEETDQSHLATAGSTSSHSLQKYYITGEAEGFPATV
structure (smiles),measurement,setting,value
COC(=O)[C@H]1[C@H]2C[C@@H]3c4[nH]c5cc(OC)ccc5c4CCN3C[C@H]2C[C@H](OC)[C@@H]1OC,Potency,[1],inactive
same,Potency,[2],inconclusive: 29.8 µM
same,Potency,[3],"inconclusive: 29.8 µM [rising, partial curve, poor fit]"
same,Potency,[4],"inconclusive: 29.8 µM [rising, partial curve]"
same,Potency,[5],inactive
same,Potency,[6],"inconclusive: 26.8 µM [rising, single point]"
same,Potency,[7],"inconclusive: 12.6 µM [activator, single point]"
CN[C@H]1CCc2cc(OC)c(OC)c(OC)c2-c2ccc(OC)c(=O)cc21,Potency,[1],inconclusive: 0.0422 µM [activator]
same,Potency,[8],active: 0.335 µM
same,Potency,[9],inactive
same,Potency,[10],"inconclusive: 0.213 µM [activator, full curve]"
same,Potency,[11],active: 0.0473 µM
same,Potency,[4],active: 0.119 µM
same,Potency,[5],"inconclusive: 0.0268 µM [rising, full curve]"
same,Potency,[12],active: 0.0841 µM
same,Potency,[7],active: 1 µM
O=C(NOC[C@H](O)CO)c1ccc(F)c(F)c1Nc1ccc(I)cc1F,activation,[1],inconclusive: 7.42%
same,Potency,[8],inconclusive: 13.3 µM [activator]
same,Potency,[5],"inconclusive: 4.77 µM [rising, full curve, poor fit]"
C=CCNCC=C,Potency,[1],inactive
same,Potency,[4],"inconclusive: 68.6 µM [rising, single point]"
same,Potency,[13],inactive
same,Potency,[6],inactive
Cc1cc(C)c(NC(=O)C[C@H](CC(=O)O)c2cccc3ccccc23)c(C(=O)N2CCC3(CCCC3)CC2)c1,Potency,[1],"inconclusive: 11.9 µM [fluorescent, partial curve]"
same,"ratio activity, negative = MMP loss",[8],inconclusive: 27.5%
same,Potency,[10],active: 10.7 µM
same,Potency,[11],inactive
same,Potency,[2],"inconclusive: 26.6 µM [rising, partial curve, poor fit]"
same,Potency,[4],"inconclusive: 29.8 µM [cytotoxic, partial curve]"
same,Potency,[5],"inconclusive: 3.79 µM [rising, partial curve, poor fit]"
same,Potency,[7],"inconclusive: 10 µM [activator, partial curve]"
